Assay results as given in the supplement of paper PMC3334620.
Over roughly 33,000 sequences, “E-score (-0.5 to 0.5)” has its median near -0.056; the highest 2% begin near 0.38. The list shows a part of the results.

target: Stb4 (UniProt P50104); assay: PBM E-score (8-mer binding enrichment) (E-score (-0.5 to 0.5)); higher = stronger / more preferred TF binding; most listed sequences are background and not binding sites; conditions: protein concentration: 200 nM; construct: GST-DNA-binding domain
Outline: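 Full-length yeast transcription factors or their DNA-binding domains, GST-tagged and expressed with PURExpress, were applied at about 100-200 nM to universal all-10-mer Agilent arrays. These arrays had been made double-stranded by primer extension on fresh or once-stripped slides. Detection used fluorescent anti-GST, normalisation used masliner, and E-scores for ungapped eight-base words pooled with reverse complements came from the Universal PBM Analysis Suite.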

Sequence	PBM E-score
CTCTAACA	-0.114
CATTCTGG	-0.122
CTGAAGGA	-0.153
AAGTGGCG	0.0121
CTGGCCGC	-0.226
CTCAGTAA	-0.214
GAATAAGA	0.117
CTTGGTGA	-0.0851
CCTGAGTA	-0.224
AATTAAGC	0.0738
AAATGCTG	-0.227
AGCGATGG	-0.0938
CATTTCGA	-0.101
GAGCGGGA	0.18
TCATTGAA	-0.163
CTGGAATC	0.0452
GGGCACAC	-0.0902
CACAGGCC	-0.0324
AACTATGC	0.0882
CTTTAACC	-0.00268
AAGCCAAA	-0.0671
ACGTTGAG	-0.161
CCGGAAGG	0.392
TAGAATAA	-0.0837
CATAGCCC	-0.134

Sequence	PBM E-score
ATAAACTG	0.0204
AAATTATA	0.104
CATCTGGC	-0.0988
CATCGTGC	-0.257
AACCGTCG	0.214
CCTATGCG	0.00696
ATCCCGCA	0.0648
GTCCTTGA	-0.136
AAAAGCGA	0.0415
AACCCCCC	-0.264
ATGCCCCC	-0.203
CGCAGAGC	-0.176
CTAACTGC	-0.0992
GCATCTTA	-0.0588
ACCCTTTA	-0.116
CAATATCG	-0.0235
ACGGCAAA	0.243
AGCCCCCC	-0.102
GCTTAGGA	-0.152
ATTATAAG	-0.0991
CCATTACA	0.00492
CGGAGCCA	0.201
GAGGGCAC	0.00272
GTACTAAC	0.0366
CATCAAGG	-0.242

Sequence	PBM E-score
CCAATTAC	-0.151
GACCACAA	0.0537
GTCGCTGA	-0.156
AATGGTAG	-0.228
ACATACAG	-0.116
GAGACTAC	0.0364
AAGACTGA	-0.25
CCGAAAAC	0.41
ACCTACAG	-0.0914
CTCCGTGA	0.133
CACTAGTA	-0.196
GACTTACA	-0.0902
GCGGTGCC	-0.0706
GATGCCTA	-0.127
CAGTGGGG	-0.161
GAGGAAAC	0.058
ACCAGGCC	-0.0604
TAAATCGA	-0.211
CCCGCTAA	0.116
AACAGATA	0.00832
ACCTATAA	-0.13
ATCGAGTC	-0.196
CTGCTGTC	-0.0903
ATCCGACA	0.442
CACCACAC	-0.0841

Sequence	PBM E-score
CGTGACAG	-0.0186
CCGAAGCA	0.35
CAACATTG	-0.00255
AGCGCGGG	0.169
CATGTAGA	-0.184
ATCTGCAC	-0.0633
GCTGGATA	-0.0787
GACTTTCC	0.0712
AGACGATG	-0.065
GATGCCAC	-0.0531
ACCTTAAC	0.0163
AGTTTCGC	0.0157
GGTGTATA	-0.0247
AACCGTCC	0.144
ATTAAGAG	-0.021
ACCAGCCC	0.135
CGATTGAC	-0.238
ATACGGGA	0.237
ACCCGACA	0.402
CCTATATA	-0.103
ACGCCAGA	-0.077
CAAGCTAA	-0.19
AGACTCCG	0.124
CGCGGTGC	-0.142
ATCCACAT	-0.00034

Sequence	PBM E-score
AGGGGAGG	0.117
AAACAGTG	-0.16
CAACTTCG	-0.0637
AATATTTG	-0.0677
AGCGTCCA	-0.199
CTTCCTGA	-0.00442
GCGTCCTA	-0.227
CCCGGCCG	0.287
GGGTACCC	0.211
CAAAGCCA	-0.265
CATACATC	0.0283
AATACTGG	-0.159
CCCAGCAC	-0.154
CATATCAG	-0.156
GATTGCGA	0.217
CGGTTGAC	0.264
AGATTCTG	-0.129
CGTAAAGA	-0.0382
CTGCTAGA	-0.115
CAGACCCA	-0.207
ACAACACG	-0.0121
TTAGGCAA	-0.328
CCATACGG	0.135
AATTACAA	-0.295
AGATTTAT	0.183

Sequence	PBM E-score
GGGGACGA	-0.0717
AACATAAA	-0.0944
GGGATGCA	0.00455
ACAATCTA	-0.0973
GCTTAGCC	0.145
CATCTGGG	-0.248
CGCACACC	0.0525
ACGGCTTA	0.169
ATCTACCG	0.267
AACTAGAG	-0.273
TGACTGAA	-0.15
AGACACGA	-0.171
ACTAGAGG	-0.127
ATCACTCA	-0.114
GGGAGCGA	0.00915
GATCTAAA	0.138
GATACTCA	0.0843
GACTCGCC	-0.137
CCGAGTGA	0.338
CACCCGAA	0.436
AATGCCGA	0.415
GTCGTCGA	-0.221
AGCGCCGC	0.00426
GGCGAAAA	0.0268
AGCAGAGA	-0.208

Sequence	PBM E-score
ACGAAATG	-0.0746
GAAGTCCA	0.0735
GCATTTAA	0.126
CCATCGCG	0.0831
CCGAGCAC	0.413
AGAAGGCA	-0.217
TAACTATA	-0.232
GCGGCAGC	0.103
GCCCAGGA	-0.0894
AATCGAAT	0.00368
GACTAGCA	-0.114
CTTTAGAA	0.0773
ACGTAGGA	-0.123
ACGCTGTA	-0.113
CTATAATC	-0.152
CTGCCGCA	0.0287
AAACTTCT	0.067
GGCAAGCC	-0.0599
AATTTGTG	0.0806
AAGGACAA	-0.028
CTGGGACA	-0.154
AACGCACT	-0.13
CCGGCTAA	0.342
GTAGCGCA	-0.0646
GCGTATTA	-0.149

Sequence	PBM E-score
TAGCGCAA	-0.129
ACGGTCTC	0.0218
AGTACGCC	-0.193
GGGTAGTA	0.111
CACATCAG	-0.209
ATTAGTCG	0.00325
ACTCCCTA	-0.257
CGGCTTAG	0.228
CCTAACAC	0.00789
GGACACAA	-0.0182
CAGTCGCG	-0.138
CCTACCAC	-0.122
ATAGCGGG	0.0172
CATCATAG	-0.0401
ACGCAGTA	-0.0773
GGATGTCA	0.171
CTCTGCTA	-0.0729
CCGTGAGA	0.0732
ATGCTCAA	-0.123
CACGTTTC	0.0107
ATCACTGG	-0.216
ATCTTGCG	-0.0404
ACTTAAAT	-0.0736
ACTGTAAG	0.0163
TCGTAGCA	-0.272

Sequence	PBM E-score
GTGTTAAC	-0.135
CGCCCACC	-0.146
TATAGTGA	-0.195
GGAGAGAC	0.0549
ATAAAGAT	0.00558
ACTTAGAC	-0.0631
GCCCTACA	-0.0666
AGCTTGTA	-0.288
ATGGGAAC	-0.0551
ATTCCGAA	0.464
CCCTATCG	0.024
ACTTAGTC	-0.0955
CACGGAAC	0.352
AGAAAGGC	-0.256
CGTATAGA	-0.136
TCTAGCAA	-0.0809
CGTCCTTC	-0.0205
GCATCTAA	0.0827
ACTTTGAT	-0.156
